This is one part of the list.
System: HSkMC (human skeletal muscle cells)
Experiment: cytotoxicity call (relative viability < 0.9)
Conditions: 10 µM

| Compound | cytotoxicity call |
| --- | --- |
| C[C@@H]1CCCCO[C@@H](CN(C)CC2CCCCC2)[C@@H](C)CN([C@@H](C)CO)C(=O)c2cc(NS(=O)(=O)c3ccccc3)ccc2O1 | inactive |
| C[C@H]1CCCCO[C@@H](CN(C)S(=O)(=O)c2cn(C)cn2)[C@@H](C)CN([C@@H](C)CO)C(=O)c2cc(NS(=O)(=O)c3cccs3)ccc2O1 | inactive |
| CC/1=C(CCC(=O)O)/C/2=C/c3[nH]c(c(c3CCC(=O)O)C)/C=C/3\N=C(/C=C/4\N=C(\C=C1/N2)C(=C4C)C=C)C(=C3C)C=C | inactive |
| COc1ccccc1OCC(O)COC(N)=O (centres undefined) | inactive |
| O=C(O)c1oc2ccccc2c1CSc1ccc(Cl)cc1 | inactive |
| C[C@@H]1CCCCO[C@H](CN(C)C(=O)Nc2cccc3ccccc23)[C@H](C)CN([C@@H](C)CO)C(=O)c2cc(NS(=O)(=O)c3cn(C)cn3)ccc2O1 | inactive |
| C[C@H](CO)N1C[C@H](C)[C@H](CN(C)Cc2ccc(Cl)c(Cl)c2)OCCCC[C@H](C)Oc2ccc(NC(=O)Nc3ccccc3)cc2C1=O | inactive |
| C[C@@H]1CCCCO[C@H](CN(C)C(=O)NC2CCCCC2)[C@@H](C)CN([C@H](C)CO)C(=O)c2cc(NC(=O)Nc3ccc4c(c3)OCO4)ccc2O1 | inactive |
| CC(C)NC(=O)N(C)C[C@H]1Oc2ccc(NC(=O)CCCN(C)C)cc2C(=O)N([C@H](C)CO)C[C@H]1C | inactive |
| Cc1noc(C)c1NC(=O)N(C)C[C@H]1Oc2ccc(NC(=O)CCN3CCOCC3)cc2CC(=O)N([C@H](C)CO)C[C@@H]1C | inactive |
| COc1ccc(NC(=O)Nc2ccc3c(c2)[C@@H]2C[C@@H](CC(=O)NCc4ccncc4)O[C@@H](CO)[C@@H]2O3)cc1 | inactive |
| CNC(=O)[C@H]1O[C@H](n2cnc3c(NCc4cccc(I)c4)ncnc32)[C@@H](O)[C@@H]1O | inactive |

System: HepG2
Experiment: cytotoxicity call (relative viability < 0.9)
Conditions: 10 µM

| Compound | cytotoxicity call |
| --- | --- |
| C[C@@H]1CCCCO[C@H](CN(C)C(=O)Nc2ccc(C(F)(F)F)cc2)[C@H](C)CN([C@@H](C)CO)C(=O)c2cc(NS(=O)(=O)c3ccccc3)ccc2O1 | active |
| CC(C)NC(=O)Nc1ccc2c(c1)C(=O)N([C@@H](C)CO)C[C@@H](C)[C@@H](CN(C)S(C)(=O)=O)OCCCC[C@@H](C)O2 | inactive |
| CC(C)CC#Cc1ccc2c(c1)O[C@@H](CN(C)CC1CCOCC1)[C@H](C)CN([C@H](C)CO)S2(=O)=O | inactive |
| O=C(C[C@H]1C[C@@H]2c3cc(NS(=O)(=O)c4ccc(F)cc4)ccc3O[C@@H]2[C@@H](CO)O1)NC1CCCCC1 | inactive |
| c1ccc(-c2ccc([C@H](c3ccccc3)n3ccnc3)cc2)cc1 | inactive |
| CC(C)(C)OC(=O)C[C@H]1CC=CC[C@H](CC(=O)NCCO)C(=O)N[C@H](Cc2ccccc2)COC1=O | inactive |
| CCS(=O)(=O)N(C)C[C@H]1OCc2ccccc2-c2c(n(C)c3ccccc23)C(=O)N([C@H](C)CO)C[C@H]1C | inactive |
| C[C@@H]1CCCCO[C@@H](CN(C)S(=O)(=O)c2ccc(F)cc2)[C@@H](C)CN([C@H](C)CO)C(=O)c2cc(NC(=O)Nc3ccc(F)cc3)ccc2O1 | inactive |
| O=C(C[C@H]1CC[C@H]2[C@@H](COC[C@@H](O)CN2S(=O)(=O)c2ccccc2F)O1)NCc1ccccc1F | inactive |
| C[C@@H]1CN([C@H](C)CO)C(=O)Cc2cc(NC(=O)CCN3CCOCC3)ccc2O[C@H]1CN(C)S(=O)(=O)c1ccc(F)cc1 | inactive |
| C[C@@H]1CN([C@H](C)CO)C(=O)Cc2cc(NC(=O)Cn3cnnn3)ccc2O[C@@H]1CN(C)S(=O)(=O)c1ccc(Cl)cc1 | inactive |
| C[C@H](CO)N1C[C@H](C)[C@@H](CN(C)S(C)(=O)=O)Oc2ccc(NC(=O)Nc3ccc4c(c3)OCO4)cc2C1=O | inactive |
| C=CC1=C(C)C(=Cc2[nH]c(Cc3[nH]c(C=C4NC(=O)C(C)=C4C=C)c(C)c3CCC(=O)O)c(CCC(=O)O)c2C)NC1=O | inactive |
| C[C@H](CO)N1C[C@H](C)[C@H](CN(C)C(=O)Nc2cccc3ccccc23)Oc2ncc(-c3ccc(F)cc3)cc2C1=O | inactive |
| C[C@H](CO)N1C[C@H](C)[C@H](CN(C)Cc2cncnc2)Oc2cc(C#CC3CCCC3)ccc2S1(=O)=O | inactive |
| COc1ccc(-c2cnc3c(c2)C(=O)N([C@@H](C)CO)C[C@@H](C)[C@H](CN(C)C(=O)C2CCOCC2)O3)cc1 | inactive |
| C[C@@H]1CN([C@H](C)CO)C(=O)c2cc(NC(=O)Cc3ccccc3)ccc2O[C@@H](C)CCCCO[C@@H]1CN(C)S(=O)(=O)c1cccs1 | inactive |

— the antibiotic and cytotoxicity screens of Wong et al. (2023)
